The record followed here is PMC4207803.

Protein sequences, listed by entry. Tags and fused reporters are not part of them. Lines headed by an entry give the natural chain unless they say otherwise; changes in a name come on top. Chains listed by the source or under a name are the forms on record and can include a tag or linker. Residues count along the entry.
UniProt Q14671: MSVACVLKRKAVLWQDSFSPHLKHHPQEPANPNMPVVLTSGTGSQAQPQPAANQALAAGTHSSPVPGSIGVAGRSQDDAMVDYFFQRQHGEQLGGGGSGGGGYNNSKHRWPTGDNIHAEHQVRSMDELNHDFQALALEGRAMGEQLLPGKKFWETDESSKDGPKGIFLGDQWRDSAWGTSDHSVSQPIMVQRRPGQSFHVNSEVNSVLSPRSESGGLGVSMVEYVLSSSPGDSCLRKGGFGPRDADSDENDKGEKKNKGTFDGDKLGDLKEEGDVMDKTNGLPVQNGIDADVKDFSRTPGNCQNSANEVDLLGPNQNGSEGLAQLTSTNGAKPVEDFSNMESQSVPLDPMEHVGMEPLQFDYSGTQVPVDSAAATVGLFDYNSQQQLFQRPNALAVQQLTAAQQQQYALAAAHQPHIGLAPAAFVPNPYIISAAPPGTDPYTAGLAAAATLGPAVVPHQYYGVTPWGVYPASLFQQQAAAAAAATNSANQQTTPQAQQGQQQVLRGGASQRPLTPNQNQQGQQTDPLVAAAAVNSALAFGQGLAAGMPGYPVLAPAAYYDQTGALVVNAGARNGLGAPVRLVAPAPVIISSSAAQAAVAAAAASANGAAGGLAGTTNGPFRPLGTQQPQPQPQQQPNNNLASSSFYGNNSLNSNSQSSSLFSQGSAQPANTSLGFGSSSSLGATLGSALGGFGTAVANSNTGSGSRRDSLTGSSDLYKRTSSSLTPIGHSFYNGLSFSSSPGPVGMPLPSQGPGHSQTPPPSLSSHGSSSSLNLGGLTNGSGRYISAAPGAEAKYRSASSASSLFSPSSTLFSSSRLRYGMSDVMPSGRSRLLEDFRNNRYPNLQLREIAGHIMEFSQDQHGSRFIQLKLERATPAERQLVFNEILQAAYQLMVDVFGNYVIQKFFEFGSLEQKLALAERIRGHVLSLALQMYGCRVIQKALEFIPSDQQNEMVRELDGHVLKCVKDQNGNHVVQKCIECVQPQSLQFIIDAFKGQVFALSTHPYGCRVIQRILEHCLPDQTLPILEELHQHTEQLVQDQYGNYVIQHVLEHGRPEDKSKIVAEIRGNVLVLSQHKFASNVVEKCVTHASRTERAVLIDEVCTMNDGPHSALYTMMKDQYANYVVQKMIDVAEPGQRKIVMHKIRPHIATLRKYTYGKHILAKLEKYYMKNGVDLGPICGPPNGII
Flag-tagged PUM1dN (PUM-HD of PUM1): residues 828-1168 of Q14671
Flag-tagged PUM2 (full-length) (Q8TB72-3, form named): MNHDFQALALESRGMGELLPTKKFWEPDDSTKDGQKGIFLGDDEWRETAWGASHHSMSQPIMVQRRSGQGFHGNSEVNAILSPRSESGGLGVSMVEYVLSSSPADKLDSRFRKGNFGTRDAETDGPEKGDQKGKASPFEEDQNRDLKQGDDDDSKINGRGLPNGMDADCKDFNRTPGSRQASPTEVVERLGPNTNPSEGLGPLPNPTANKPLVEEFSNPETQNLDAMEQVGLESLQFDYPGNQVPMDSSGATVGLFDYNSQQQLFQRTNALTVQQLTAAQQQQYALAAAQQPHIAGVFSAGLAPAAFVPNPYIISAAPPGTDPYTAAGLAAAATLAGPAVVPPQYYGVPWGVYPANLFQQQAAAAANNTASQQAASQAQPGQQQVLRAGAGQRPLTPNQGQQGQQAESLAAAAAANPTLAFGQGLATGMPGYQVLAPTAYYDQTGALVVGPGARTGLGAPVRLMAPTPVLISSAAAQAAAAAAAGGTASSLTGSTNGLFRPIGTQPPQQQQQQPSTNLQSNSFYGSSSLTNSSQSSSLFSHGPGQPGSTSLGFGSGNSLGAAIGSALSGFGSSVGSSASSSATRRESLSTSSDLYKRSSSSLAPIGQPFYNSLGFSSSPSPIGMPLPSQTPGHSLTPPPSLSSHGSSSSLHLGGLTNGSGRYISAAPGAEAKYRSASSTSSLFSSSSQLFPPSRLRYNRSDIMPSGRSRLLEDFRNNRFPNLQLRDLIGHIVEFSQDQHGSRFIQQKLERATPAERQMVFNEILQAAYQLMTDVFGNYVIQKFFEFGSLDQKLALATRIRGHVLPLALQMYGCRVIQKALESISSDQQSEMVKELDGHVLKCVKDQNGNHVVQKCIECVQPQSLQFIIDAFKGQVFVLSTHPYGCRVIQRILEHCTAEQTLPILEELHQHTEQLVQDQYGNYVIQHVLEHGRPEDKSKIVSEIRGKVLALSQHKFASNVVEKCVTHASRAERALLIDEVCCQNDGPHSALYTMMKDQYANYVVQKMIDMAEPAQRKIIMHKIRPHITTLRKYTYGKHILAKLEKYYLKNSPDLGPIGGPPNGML
PUM2H850A (Flag-tagged) (Q8TB72-3, form named): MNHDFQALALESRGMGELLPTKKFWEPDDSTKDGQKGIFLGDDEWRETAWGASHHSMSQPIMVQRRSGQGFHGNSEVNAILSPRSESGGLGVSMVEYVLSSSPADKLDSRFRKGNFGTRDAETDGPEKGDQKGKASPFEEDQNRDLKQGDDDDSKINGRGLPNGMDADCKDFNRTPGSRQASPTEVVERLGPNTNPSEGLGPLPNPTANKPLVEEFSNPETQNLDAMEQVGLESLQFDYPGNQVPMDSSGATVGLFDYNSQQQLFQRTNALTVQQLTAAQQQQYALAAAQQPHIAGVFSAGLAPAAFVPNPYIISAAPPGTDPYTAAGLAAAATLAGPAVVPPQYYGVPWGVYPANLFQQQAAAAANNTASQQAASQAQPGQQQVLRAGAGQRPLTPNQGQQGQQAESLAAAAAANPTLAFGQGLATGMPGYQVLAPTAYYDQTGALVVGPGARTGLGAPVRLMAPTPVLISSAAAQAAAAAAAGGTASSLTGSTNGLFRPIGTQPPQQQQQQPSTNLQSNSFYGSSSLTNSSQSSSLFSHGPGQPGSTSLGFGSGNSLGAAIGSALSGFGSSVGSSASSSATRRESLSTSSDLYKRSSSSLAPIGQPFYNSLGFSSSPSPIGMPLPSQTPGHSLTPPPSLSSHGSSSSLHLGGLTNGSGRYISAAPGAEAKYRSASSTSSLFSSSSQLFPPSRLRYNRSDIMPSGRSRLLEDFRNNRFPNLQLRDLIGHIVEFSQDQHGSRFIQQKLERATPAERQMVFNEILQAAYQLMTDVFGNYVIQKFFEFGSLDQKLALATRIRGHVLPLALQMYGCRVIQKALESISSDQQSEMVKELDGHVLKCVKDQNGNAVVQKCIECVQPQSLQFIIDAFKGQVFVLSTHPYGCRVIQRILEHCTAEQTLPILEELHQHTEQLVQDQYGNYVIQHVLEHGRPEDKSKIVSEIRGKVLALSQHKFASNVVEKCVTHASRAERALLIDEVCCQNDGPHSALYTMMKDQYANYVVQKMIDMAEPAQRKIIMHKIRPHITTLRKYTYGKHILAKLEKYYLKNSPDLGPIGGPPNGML
UniProt Q14258: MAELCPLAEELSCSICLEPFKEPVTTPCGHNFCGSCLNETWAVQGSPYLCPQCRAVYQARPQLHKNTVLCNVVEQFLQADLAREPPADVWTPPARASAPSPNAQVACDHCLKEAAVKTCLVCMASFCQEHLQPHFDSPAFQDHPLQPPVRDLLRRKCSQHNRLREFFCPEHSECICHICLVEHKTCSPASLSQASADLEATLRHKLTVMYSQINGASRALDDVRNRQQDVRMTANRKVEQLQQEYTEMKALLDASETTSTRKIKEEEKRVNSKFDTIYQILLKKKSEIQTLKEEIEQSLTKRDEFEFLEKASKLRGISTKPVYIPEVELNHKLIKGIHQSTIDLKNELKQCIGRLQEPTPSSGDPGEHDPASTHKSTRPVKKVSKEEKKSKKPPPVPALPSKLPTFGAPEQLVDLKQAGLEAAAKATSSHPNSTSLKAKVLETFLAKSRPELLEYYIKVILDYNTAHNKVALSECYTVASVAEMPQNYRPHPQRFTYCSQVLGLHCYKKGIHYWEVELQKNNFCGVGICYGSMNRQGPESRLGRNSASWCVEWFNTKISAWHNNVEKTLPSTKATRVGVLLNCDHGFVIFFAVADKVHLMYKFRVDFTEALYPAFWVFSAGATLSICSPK
UniProt Q7Z434: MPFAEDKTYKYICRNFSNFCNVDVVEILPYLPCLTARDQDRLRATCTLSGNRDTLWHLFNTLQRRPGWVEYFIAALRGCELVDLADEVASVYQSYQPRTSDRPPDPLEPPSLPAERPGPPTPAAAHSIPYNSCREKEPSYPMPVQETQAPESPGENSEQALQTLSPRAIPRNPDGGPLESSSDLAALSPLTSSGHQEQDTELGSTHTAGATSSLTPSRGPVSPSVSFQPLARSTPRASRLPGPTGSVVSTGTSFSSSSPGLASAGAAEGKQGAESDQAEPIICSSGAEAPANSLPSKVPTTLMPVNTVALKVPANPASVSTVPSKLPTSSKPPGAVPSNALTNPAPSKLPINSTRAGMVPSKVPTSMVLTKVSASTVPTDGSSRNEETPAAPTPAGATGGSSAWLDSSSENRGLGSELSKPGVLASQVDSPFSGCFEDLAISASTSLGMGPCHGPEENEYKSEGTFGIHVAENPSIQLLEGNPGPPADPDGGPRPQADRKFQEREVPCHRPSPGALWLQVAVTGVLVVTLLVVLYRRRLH

Results are given in words; binding and its absence hold for the method and conditions named. For some assays here: In cells and extracts the contact can be indirect. Some entries that bind do so weakly or less than the wild type. For some assays here: Sequences can lack the tags named with a protein.

Test [1] concerns the target Flag-tagged PUM1 (full-length) (human) (UniProt Q14671). Kind of test: co-IP; HEK293T cells co-transfected; lysates precipitated with anti-Flag antibody and Protein G Sepharose at 4°C overnight; Western blotting (anti-HA). In general terms: In western blotting, separated proteins are transferred to a membrane and probed.
Test [2] concerns the target Flag-tagged PUM2 (full-length) (human) (UniProt Q8TB72). The description is as above.
Test [3] concerns the target Myc-tagged TRIM25 (UniProt Q14258). In words: co-IP; HEK293T cells co-transfected with Flag-tagged PUM1 or PUM2 and Myc-tagged TRIM25; anti-Flag or anti-c-Myc immunoprecipitation, Protein G Sepharose; Western blotting.
Test [4] addresses Flag-tagged PUM1dN (PUM-HD of PUM1) (human) (UniProt Q14671). Kind of test: co-IP; HEK293T cells co-transfected; lysates precipitated with anti-Flag antibody and Protein G Sepharose at 4°C overnight; Western blotting (anti-HA).
Test [5] deals with PUM1H972A (Flag-tagged) (human) (UniProt Q14671). The description is as above.
The target in test [6] is PUM2H850A (Flag-tagged) (human) (UniProt Q8TB72). The test is described as above.
Test [7] deals with recombinant PUM1 produced as GST fusion (N-terminal GST, C-terminal His6) (human) (UniProt Q14671). In words: native gel or EMSA; recombinant LGP2 (0.125 µg) with 32P-labeled dsRNA (25/25c) with or without Pumilio proteins (0.1, 0.3 or 0.5 µg); 20 mM Tris-HCl pH 8.0, 1.5 mM MgCl2, 1.5 mM DTT, 37°C 15 min; 15% acrylamide gel, TBE; both purified.
In test [8] the target is recombinant PUM2 produced as GST fusion (N-terminal GST, C-terminal His6) (human) (UniProt Q8TB72). The description is as above.
The target in test [9] is recombinant PUM1 produced as GST fusion (N-terminal GST, C-terminal His6) (human) (UniProt Q14671). In words: pull-down; GST pull-down without dsRNA: LGP2 (0.5 µg) mixed with GST-Pumilio proteins (0.5 µg) in 20 mM Tris-HCl pH 8.0, 1.5 mM MgCl2, 1.5 mM DTT, 37°C 15 min; Glutathione Sepharose 4B, room temperature 1 h; Western blotting; both purified.
Test [10] has as its target recombinant PUM2 produced as GST fusion (N-terminal GST, C-terminal His6) (human) (UniProt Q8TB72). The description is as above.
Test [11] addresses recombinant PUM1 produced as GST fusion (N-terminal GST, C-terminal His6) (human) (UniProt Q14671). In words: condition: only in the presence of dsRNA (25/25c, 0.4 µg); pull-down; GST pull-down in the presence of synthetic dsRNA (25/25c, 0.4 µg): LGP2 (0.5 µg) mixed with GST-Pumilio proteins (0.5 µg) in 20 mM Tris-HCl pH 8.0, 1.5 mM MgCl2, 1.5 mM DTT, 37°C 15 min; Glutathione Sepharose 4B; Western blotting; both purified.

For test [12], the target named is recombinant PUM2 produced as GST fusion (N-terminal GST, C-terminal His6) (human) (UniProt Q8TB72). Described as above.

For “HA-tagged PUM2 (from UniProt Q8TB72-3 1-1064)”, the binding result in test [1] is on record as “binds”.

In the case of “HA-tagged IPS-1 (from UniProt Q7Z434 1-540)”, the binding result in test [1] and in test [2] was “no binding” throughout.

Consider “Flag-tagged PUM2 (full-length) (from UniProt Q8TB72-3 1-1064)”, for which, in test [3], the binding entry was “no binding”.

In the case of “Flag-tagged PUM1 (full-length) (from UniProt Q14671 1-1186)”, the binding result in test [3] was “no binding”.

B1: HA-tagged LGP2 full-length (protein, UniProt Q96C10 1-678)
chain: MELRSYQWEVIMPALEGKNIIIWLPTGAGKTRAAAYVAKRHLETVDGAKVVVLVNRVHLVTQHGEEFRRMLDGRWTVTTLSGDMGPRAGFGHLARCHDLLICTAELLQMALTSPEEEEHVELTVFSLIVVDECHHTHKDTVYNVIMSQYLELKLQRAQPLPQVLGLTASPGTGGASKLDGAINHVLQLCANLDTWCIMSPQNCCPQLQEHSQQPCKQYNLCHRRSQDPFGDLLKKLMDQIHDHLEMPELSRKFGTQMYEQQVVKLSEAAALAGLQEQRVYALHLRRYNDALLIHDTVRAVDALAALQDFYHREHVTKTQILCAERRLLALFDDRKNELAHLATHGPENPKLEMLEKILQRQFSSSNSPRGIIFTRTRQSAHSLLLWLQQQQGLQTVDIRAQLLIGAGNSSQSTHMTQRDQQEVIQKFQDGTLNLLVATSVAEEGLDIPHCNVVVRYGLLTNEISMVQARGRARADQSVYAFVATEGSRELKRELINEALETLMEQAVAAVQKMDQAEYQAKIRDLQQAALTKRAAQAAQRENQRQQFPVEHVQLLCINCMVAVGHGSDLRKVEGTHHVNVNPNFSNYYNVSRDPVVINKVFKDWKPGGVISCRNCGEVWGLQMIYKSVKLPVLKVRSMLLETPQGRIQAKKWSRVPFSVPDFDFLQHCAENLSDLSLD
Turning to B1, the binding result is “binds” in [1]; “no binding” in test [4]; “binds” in test [2]; “binds” in [5]; “binds” in [6].

B2: recombinant Flag-tagged LGP2 (6xHis-LGP2) (protein, UniProt Q96C10 1-678)
chain: B1 chain
On to B2, for which the binding entry in test [7] is “no binding (condition: LGP2 in complex with dsRNA)”; in test [8] it was “no binding (condition: LGP2 in complex with dsRNA)”; in test [9] it was “binds”; in test [10], “binds”; in test [11], “no binding”; in test [12] it was “no binding”.

B3: HA-tagged MDA5 (protein, UniProt Q9BYX4 1-1025)
chain: MSNGYSTDENFRYLISCFRARVKMYIQVEPVLDYLTFLPAEVKEQIQRTVATSGNMQAVELLLSTLEKGVWHLGWTREFVEALRRTGSPLAARYMNPELTDLPSPSFENAHDEYLQLLNLLQPTLVDKLLVRDVLDKCMEEELLTIEDRNRIAAAENNGNESGVRELLKRIVQKENWFSAFLNVLRQTGNNELVQELTGSDCSESNAEIENLSQVDGPQVEEQLLSTTVQPNLEKEVWGMENNSSESSFADSSVVSESDTSLAEGSVSCLDESLGHNSNMGSDSGTMGSDSDEENVAARASPEPELQLRPYQMEVAQPALEGKNIIICLPTGSGKTRVAVYIAKDHLDKKKKASEPGKVIVLVNKVLLVEQLFRKEFQPFLKKWYRVIGLSGDTQLKISFPEVVKSCDIIISTAQILENSLLNLENGEDAGVQLSDFSLIIIDECHHTNKEAVYNNIMRHYLMQKLKNNRLKKENKPVIPLPQILGLTASPGVGGATKQAKAEEHILKLCANLDAFTIKTVKENLDQLKNQIQEPCKKFAIADATREDPFKEKLLEIMTRIQTYCQMSPMSDFGTQPYEQWAIQMEKKAAKEGNRKERVCAEHLRKYNEALQINDTIRMIDAYTHLETFYNEEKDKKFAVIEDDSDEGGDDEYCDGDEDEDDLKKPLKLDETDRFLMTLFFENNKMLKRLAENPEYENEKLTKLRNTIMEQYTRTEESARGIIFTKTRQSAYALSQWITENEKFAEVGVKAHHLIGAGHSSEFKPMTQNEQKEVISKFRTGKINLLIATTVAEEGLDIKECNIVIRYGLVTNEIAMVQARGRARADESTYVLVAHSGSGVIEHETVNDFREKMMYKAIHCVQNMKPEEYAHKILELQMQSIMEKKMKTKRNIAKHYKNNPSLITFLCKNCSVLACSGEDIHVIEKMHHVNMTPEFKELYIVRENKALQKKCADYQINGEIICKCGQAWGTMMVHKGLDLPCLKIRNFVVVFKNNSTKKQYKKWVELPITFPNLDYSECCLFSDED
As for B3, the binding entry in [1] and in test [2] was “no binding” in each case.

B4: HA-tagged RIG-I (protein, UniProt O95786 1-925)
chain: MTTEQRRSLQAFQDYIRKTLDPTYILSYMAPWFREEEVQYIQAEKNNKGPMEAATLFLKFLLELQEEGWFRGFLDALDHAGYSGLYEAIESWDFKKIEKLEEYRLLLKRLQPEFKTRIIPTDIISDLSECLINQECEEILQICSTKGMMAGAEKLVECLLRSDKENWPKTLKLALEKERNKFSELWIVEKGIKDVETEDLEDKMETSDIQIFYQEDPECQNLSENSCPPSEVSDTNLYSPFKPRNYQLELALPAMKGKNTIICAPTGCGKTFVSLLICEHHLKKFPQGQKGKVVFFANQIPVYEQQKSVFSKYFERHGYRVTGISGATAENVPVEQIVENNDIIILTPQILVNNLKKGTIPSLSIFTLMIFDECHNTSKQHPYNMIMFNYLDQKLGGSSGPLPQVIGLTASVGVGDAKNTDEALDYICKLCASLDASVIATVKHNLEELEQVVYKPQKFFRKVESRISDKFKYIIAQLMRDTESLAKRICKDLENLSQIQNREFGTQKYEQWIVTVQKACMVFQMPDKDEESRICKALFLYTSHLRKYNDALIISEHARMKDALDYLKDFFSNVRAAGFDEIEQDLTQRFEEKLQELESVSRDPSNENPKLEDLCFILQEEYHLNPETITILFVKTRALVDALKNWIEGNPKLSFLKPGILTGRGKTNQNTGMTLPAQKCILDAFKASGDHNILIATSVADEGIDIAQCNLVILYEYVGNVIKMIQTRGRGRARGSKCFLLTSNAGVIEKEQINMYKEKMMNDSILRLQTWDEAVFREKILHIQTHEKFIRDSQEKPKPVPDKENKKLLCRKCKALACYTADVRVIEECHYTVLGDAFKECFVSRPHPKPKQFSSFEKRAKIFCARQNCSHDWGIHVKYKTFEIPVIKIESFVVEDIATGVQTLYSKWKDFHFEKIPFDPAEMSK
B4: the binding result in test [1] and in test [2] was “no binding” each time.
